The source of these data is patent publication US12479866B2, “Boron-containing rho kinase inhibitors” (Percipiad, Inc., priority 2019, dated 2025).

Each structure is given as a SMILES string.

The assay concerns the target PKCtheta (Homo sapiens (Human), UniProt Q04759). In words: Radioisotope filter binding kinase assay. It is filed as biochemical. To be noted: 10 uM ATP, read-out: IC50 estimates, PKCtheta. Here is the method:
Experiment was conducted by Absorption Systems. […] The radioisotope filter binding assay is considered the gold standard for kinase profiling. The assay directly detects the true product without the use of modified substrates, coupling enzymes, or detection antibodies. Compounds are incubated with kinase, substrate, cofactors, and radioisotope-labeled ATP (^33P-Y-ATP). The reaction mixtures are then spotted onto filter papers, which bind the radioisotope-labeled catalytic product. Unreacted phosphate is removed via washing of the filter papers.
• Prepare kinase-specific substrate in freshly prepared Base Reaction Buffer (20 mM Hepes (pH 7.5), 10 mM MgCl2, 1 mM EGTA, 0.02% Brij35, 0.02 mg/ml BSA, 0.1 mM Na3VO4, 2 mM DTT, 10 µM ATP, and 1% DMSO). • Add kinase enzyme into the substrate solution and gently mix. • Add compounds in DMSO into the kinase reaction mixture by Acoustic technology (Echo550; nanoliter range), incubate for 20 minutes at room temperature. • Add ^33P-ATP (specific activity 10 μCi/μl)) into the reaction mixture to initiate the reaction. • Incubate kinase reaction for 2 hours at room temperature. • Spot reactions onto P81 ion exchange paper. • Detect kinase activity by filter-binding method.

Chain of UniProt Q04759 (Q04759 whole entry): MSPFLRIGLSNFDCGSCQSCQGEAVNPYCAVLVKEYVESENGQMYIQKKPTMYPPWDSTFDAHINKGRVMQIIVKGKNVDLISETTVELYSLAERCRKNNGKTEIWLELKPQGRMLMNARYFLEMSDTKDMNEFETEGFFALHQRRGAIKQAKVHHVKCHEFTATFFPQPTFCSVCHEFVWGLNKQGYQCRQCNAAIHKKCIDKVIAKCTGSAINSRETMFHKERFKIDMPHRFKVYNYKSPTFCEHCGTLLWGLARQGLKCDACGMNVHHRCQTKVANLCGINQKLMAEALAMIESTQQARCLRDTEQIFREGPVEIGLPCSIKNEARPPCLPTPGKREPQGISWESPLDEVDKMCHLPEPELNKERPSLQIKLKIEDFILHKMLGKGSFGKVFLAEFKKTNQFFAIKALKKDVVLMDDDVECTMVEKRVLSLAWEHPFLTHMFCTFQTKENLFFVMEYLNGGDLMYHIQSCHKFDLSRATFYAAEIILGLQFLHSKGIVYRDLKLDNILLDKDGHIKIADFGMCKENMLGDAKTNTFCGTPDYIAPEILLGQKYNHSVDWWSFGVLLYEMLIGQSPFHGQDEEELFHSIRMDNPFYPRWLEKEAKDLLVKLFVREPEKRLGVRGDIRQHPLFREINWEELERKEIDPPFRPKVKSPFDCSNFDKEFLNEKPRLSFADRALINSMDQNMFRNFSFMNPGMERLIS

On to `Cl.Cl.NCC(C(=O)Nc1ccc2cnccc2c1)c1ccc(B(O)O)cc1` (centres unmarked) [Compound 10•2HCl], for which the IC50 (usually the concentration that gives 50% inhibition) was above 10 µM.

`Cc1ccc(C(=O)OCc2ccc([C@@H](CN)C(=O)Nc3ccc4cnccc4c3)cc2)c(C)c1` [Netarsudil dimesylate]: the IC50 is above 10 µM.
